The record followed here is PubChem BioAssay AID488969 (Vanderbilt High Throughput Screening Facility, 2010).

The full ranking holds about 110,000 compounds; the median of “z-score” is about -0.1, and the highest 2% start at about 2. Some of the results follow. Calls of active or inactive are those of the source.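 Rule for the calls: active = z-score in the third read window above 3 or below -3; inactive = the rest.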

This assay addresses Metabotropic glutamate receptor 8 (Rattus norvegicus) (UniProt P70579). In words: rat mGluR8 modulators via GIRK flux, primary screen, cell-based, thallium flux, HTS (AID 488969). Conditions: HEK293 rat mGluR8, GIRK (G protein-gated inwardly rectifying potassium channel) thallium flux, FluoZin2; at 10 µM; stronger effect = higher value; submaximal glutamate (EC20) added with thallium.
Chain of UniProt P70579 (P70579 whole entry, looked up): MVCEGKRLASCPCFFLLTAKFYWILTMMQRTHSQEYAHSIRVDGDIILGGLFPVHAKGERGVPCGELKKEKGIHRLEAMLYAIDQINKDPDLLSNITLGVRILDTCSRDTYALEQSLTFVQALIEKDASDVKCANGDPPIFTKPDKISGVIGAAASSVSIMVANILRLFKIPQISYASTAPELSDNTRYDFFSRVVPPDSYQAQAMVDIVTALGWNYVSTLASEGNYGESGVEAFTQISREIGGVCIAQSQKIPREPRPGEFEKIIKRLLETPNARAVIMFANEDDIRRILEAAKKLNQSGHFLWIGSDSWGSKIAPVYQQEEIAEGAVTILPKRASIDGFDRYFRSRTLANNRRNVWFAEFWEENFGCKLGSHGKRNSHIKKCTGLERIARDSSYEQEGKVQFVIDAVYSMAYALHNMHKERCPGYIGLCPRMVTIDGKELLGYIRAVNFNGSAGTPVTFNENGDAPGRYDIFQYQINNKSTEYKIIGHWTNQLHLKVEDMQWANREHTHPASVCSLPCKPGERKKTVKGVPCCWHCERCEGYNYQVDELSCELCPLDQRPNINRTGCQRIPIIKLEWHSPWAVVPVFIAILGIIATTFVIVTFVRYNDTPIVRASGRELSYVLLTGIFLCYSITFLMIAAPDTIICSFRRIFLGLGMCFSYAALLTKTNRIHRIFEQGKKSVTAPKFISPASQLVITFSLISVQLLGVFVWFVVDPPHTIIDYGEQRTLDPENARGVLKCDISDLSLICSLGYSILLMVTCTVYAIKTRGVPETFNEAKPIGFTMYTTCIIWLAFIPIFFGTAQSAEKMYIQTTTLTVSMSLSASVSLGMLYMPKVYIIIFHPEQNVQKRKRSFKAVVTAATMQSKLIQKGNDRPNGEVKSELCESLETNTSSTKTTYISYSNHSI
In the case of `CCCCc1nnc(NC(=O)CSc2nc(=O)cc(N)n2-c2ccccc2)s1`, the z-score was 0.266. The figure for `CCC(C)Nc1nc2c(c(=O)n(C)c(=O)n2C)n1Cc1cccc(C)c1` (stereo unspecified) is -0.578. As for `CCOC(=O)c1ccccc1NC(=O)c1cc2sccc2n1C`, the z-score was -0.139. For `COc1ccc(N(CC(=O)NCc2cccc(OC)c2)S(=O)(=O)c2c(C)noc2C)cc1`, the z-score was -0.199. The figure for `Nc1c(-c2ccc(Cl)cc2)cnn1-c1cccc(C(F)(F)F)c1` is -0.222. On to `O=C(Nc1ccc([N+](=O)[O-])cn1)c1cc(-c2cccc(Cl)c2)nc2ccccc12`, for which the z-score was -0.658. For the compound `CCOc1ccc(OCC)c(NC(=O)CN2CCN(CC)CC2)c1`, the z-score turned out to be 0.18. The figure for `COc1cccc(OCCNC(=O)c2cccc(OC)c2)c1` is 0.309; for `CC(C)c1nc(N2CCOCC2)c(C#N)c2c1CCCC2` it is active: 6.82. The value for `N/C(=N\c1nc2c(c(=O)[nH]1)CCCC2)Nc1ccccc1Sc1ccccc1` was 0.0985; that for `O=C(O)c1cn(-c2ccccc2)nc1C(=O)O` was 1.18; that for `O=C1C2C3CCC(C3)C2C(=O)N1CNc1ccc(F)cc1` (stereo unspecified) was 0.026. On to `COc1ccc(NS(=O)(=O)c2cccc(C(=O)N/N=C/c3cccs3)c2)cc1`, for which the z-score was -0.428.

With `Nc1nncn1C(=O)CCCN1C(=O)c2ccccc2C1=O`, the z-score worked out at 0.0919.

`O=C(N/C(=C\c1cccs1)C(=O)N1CCCCCC1)c1ccccc1`: the z-score was -0.369. On to `Cc1cc(C)nc(Sc2c(C)n[nH]c2C)n1`, for which the z-score is -0.38. The value for `Cc1nc(NC(=O)/C=C/c2ccc(C(C)(C)C)cc2)sc1C(=O)N(C)C` was -0.097; that for `O=C(c1cc(-c2ccccn2)nc2c(Cl)cccc12)N1CCN(C(=O)C2CCCO2)CC1` (stereo unspecified) was -1.12; that for `Cc1cc(C)n(CCc2nc3c4ccccc4n(CC#N)c(=O)n3n2)n1` was 0.14. The figure for `O=C(Nc1nnc(-c2ccccc2F)s1)C1CCN(S(=O)(=O)c2ccc(Cl)cc2)CC1` is -0.468; for `Cn1c(C(=O)N2CCCC(C(=O)NCCCc3ccccc3)C2)cc2sccc21` (stereo unspecified) it is -1.12. The value for `CC(=O)c1cc2c(cc1NC(=O)CN1CCCCCC1)OCO2` was 0.469. `COC(=O)NCc1cccc(CNC(=O)OC)c1` came in with a z-score of -0.227.

For `O=C(c1cc([N+](=O)[O-])ccc1Cl)N1c2ccccc2Sc2ccccc21`, the z-score was -0.86. The figure for `CCN(CC)S(=O)(=O)c1cc(C(=O)O)ccc1Cl` is -0.121; for `COc1ccc(S(=O)(=O)N(C)c2ccc(C(=O)N3CCOCC3)cc2)cc1` it is -0.148. `Cc1ccc(N(CC(=O)N/N=C/c2ccc(OC3CSC3)cc2)S(=O)(=O)c2ccccc2)cc1` gave a z-score of 1.24. `COc1cccc(/C=N/Nc2nc(Nc3ccccc3)nc(-n3nc(C)cc3C)n2)c1O`: the z-score is -0.216. `CC1CCc2sc(C(=O)NN=C3CCC(c4ccccc4)CC3)cc2C1` (stereo unspecified) had a z-score of -0.195. For the compound `COC(=O)C(NC(C)=O)(Nc1nc(C)cs1)C(F)(F)F` (stereo unspecified), the z-score is -0.288. For `O=C(NCC(=O)N(Cc1cccs1)C(C(=O)NC1CCCCC1)c1ccco1)c1cccs1` (stereo unspecified), the z-score was -0.518. The value for `CN1CCn2c1nc(N1CCOCC1)nc2=O` was -0.213; that for `COCCCN1CCc2[nH]c(=S)[nH]c(=O)c2C1` was 0.0422; that for `CCc1cc(=O)oc2c(C)c(O)c(CN(C)C)cc12` was 0.82. As to `CC(c1ccco1)N(C(=O)Nc1ccc(Cl)cc1)c1ccccn1` (stereo unspecified), the z-score is -0.277. On to `CCOc1ccc(-n2c(-c3ccc(OC)cc3)c[n+]3c2CCCCC3)cc1`, for which the z-score was -0.114. The figure for `CC(C)CNC(=O)c1ccc(NC(=O)c2cccs2)cc1` is -0.183; for `CN(C)S(=O)(=O)c1cccc2nsnc12` it is 0.268; for `Cc1ccc(C)c(S(=O)(=O)N2CCC(c3nc4c(nnn4Cc4ccc(F)cc4)c(=O)[nH]3)CC2)c1` it is 0.0652.

In the case of `COc1ccc2c(c1)c(=O)oc1c(C)c(OCC(=O)N3CCc4ccccc4C3)ccc12`, the z-score is -0.0949. For the compound `O=C(c1ccc(C(F)(F)F)cc1)c1c[nH]c(C(=O)NCCCn2ccnc2)c1`, the z-score was -0.111.

`CCOC(=O)NCc1ccc(Cl)c(Cl)c1`: the z-score came out at 0.431. Take `Cc1sc2nc(C3CC3)nc(SCC(=O)N3CCc4ccccc4C3)c2c1C`: the z-score worked out at 1.45. The figure for `O=C(O)C1CCCN(S(=O)(=O)c2ccc(Br)cc2)C1` (stereo unspecified) is -0.276; for `CCOC(=O)N1CCN(C(=O)c2ccc(Cn3c(=S)[nH]c4cc5c(cc4c3=O)OCO5)cc2)CC1` it is -2.98; for `Cc1ccc(NC(=O)CC2C(=O)NC3CCCCC3N2C(=O)c2ccc(F)cc2)cc1C` (stereo unspecified) it is -0.212. The figure for `COc1ccc(C(=O)Nc2cccc(C(=O)N3CCCC3)c2)cc1` is -0.286; for `O=c1cc(CSc2ccccc2)[nH]c(=S)[nH]1` it is 0.601. The value for `COc1ccc(OC(C)C(=O)N2CCC(C)CC2)cc1` (stereo unspecified) was 0.926; that for `O=C1CC2CS(=O)(=O)CC2N1C1CCCCC1` (stereo unspecified) was -0.11; that for `O=C(c1c(F)cccc1F)N1CCC(O)(c2cccnc2)CC1` was -0.039. With `Cc1cc(NC(=O)CSc2nnc(C3CC3)n2Cc2ccccc2)no1`, the z-score is -0.188. `O=C(Nc1cccc(C(=O)N2CCOCC2)c1)c1cncc(Br)c1` yielded a z-score of -0.0638.

Turning to `N#C/C(=C/c1ccccc1[N+](=O)[O-])C(=O)NCc1ccco1`, the z-score is 0.294. The figure for `COc1cccc(/C=N\NC(=O)c2sc(N)nc2C)c1OC` is -0.0535; for `CCSc1nnc(-c2ccc(C)cc2)c2ccccc12` it is -0.42.

`Clc1ccc(OCCSc2ncccn2)c2ccccc12` registered a z-score of -0.00595. `O=C(CN1CCCCCC1)OCCN=C1NS(=O)(=O)c2ccccc21`: the z-score turned out to be 0.851. As to `Cc1ccc2nc(C)/c(=N\O)c(C)nc2c1`, the z-score was -0.0738.

As to `NC(=O)c1cccnc1Nc1ccccc1F`, the z-score is -0.234. The value for `Cc1ccc2nc3c(cc2c1)c(NC(=O)c1ccccn1)nn3CC(C)C` was 0.222. On to `Cc1ccc2c(c1)C1OCCC1C1N2C(=O)C2C(C(=O)O)C3C=CC21O3` (stereo unspecified), for which the z-score was 0.325. For `Cc1cc(NC(=O)c2cccc3ccccc23)cc(C)c1OCC(=O)N1CCOCC1`, the z-score is 0.469.

For `COc1ccc(-n2c(COc3ccc(Cl)cc3)nnc2SCc2ccc(C#N)cc2)cc1`, the z-score is 0.113.

The compound `CSc1ccccc1C(=O)NCCCOC(C)C` displayed a z-score of -0.577.

Regarding `N=c1c2c(ncn1CCN1CCOCC1)Oc1ccc3ccccc3c1C2c1ccccc1` (stereo unspecified), the z-score is active: 4.03. The value for `N#Cc1cc2c(=O)n3ccccc3nc2n(CC2CCCO2)c1=N` (stereo unspecified) was -0.341; that for `CCNc1nc(NCC)nc(N(C)N)n1` was -0.063. `C=CCn1c(SCC(=O)Nc2ccc3c(c2)OCO3)nnc1-c1cc(Br)ccc1O`: the z-score is -1.31.

In turn, `Cc1ccc(Nc2nnc(SCc3cc(=O)n4ccsc4n3)s2)c(C)c1` gave a z-score of 0.497. The figure for `O=C(CCl)Nc1nc(-c2ccco2)c(-c2ccco2)s1` is 0.0191.
